Assay results: the supplement of paper PMC12217912
The other results are listed elsewhere or left out. Sequences were assembled here from the parent chain. Inactive controls read about 0.05.

B1: TEV protease; numbered along this chain (parent)
chain: MGESLFKGPRDYNPISSSICHLTNESDGHTTSLYGIGFGPFIITNKHLFRRNNGTLVVQSLHGVFKVKDTTTLQQHLVDGRDMIIIRMPKDFPPFPQKLKFREPQREERICLVTTNFQTKSMSSMVSDTSCTFPSGDGIFWKHWIQTKDGQCGSPLVSTRDGFIVGIHSASNFTNTNNYFTSVPKNFMELLTNQEAQQWVSGWRLNADSVLWGGHKVFMVKPEEPFQPVKEATQL

Variants of: B1
Assay: raw area under fraction-flipped curve 0-4 h after induction (AUC4h, not background-subtracted), DNA-recorder readout of cleavage of the substrate (dimensionless); higher = more cleavage of the substrate by the protease variant
Details: temperature: 34 °C; time window: 0-4 h after rhamnose induction
Method: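 In vivo DNA recorder in E. coli TOP10(DE3) ΔrhaA at 34 °C. Each TEVp single-site mutant (parent TEVp 0) is paired with a single-site variant of the 7-mer TEVs (canonical ENLYFQ|S). The substrate sits between flexible linkers in a Bxb1-sfGFP-TEVs-SsrA fusion, so cleavage stabilises Bxb1 and speeds flipping of a recombination array, read by NGS. The value is the raw area under the fraction-flipped curve over 0-4 h after rhamnose induction (AUC4h), with ≥20 reads per time point. It is not background-subtracted; inactive controls average about 0.047.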
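Note: Bxb1 expression induced with 0.2% (w/v) L-rhamnose at OD600 near 0.5, cultures sampled hourly, flipped fraction per protease–substrate barcode pair counted by paired-end Illumina sequencing.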

Variant | area with substrate ECLYFQS | area with substrate EDLYFQS | area with substrate EELYFQS | area with substrate EFLYFQS | area with substrate EGLYFQS | area with substrate EHLYFQS | area with substrate EILYFQS | area with substrate EKLYFQS | area with substrate EMLYFQS | area with substrate EPLYFQS | area with substrate EQLYFQS | area with substrate ERLYFQS | area with substrate ESLYFQS | area with substrate ETLYFQS | area with substrate EVLYFQS | area with substrate EWLYFQS | area with substrate EYLYFQS | area with substrate ELLYFQS
R204C | 0.072 | 0.135 | 0.12 | 0.141 | 0.0856 | 0.146 | 0.104 | 0.0421 | 0.129 | 0.172 | 0.134 | 0.128 | 0.123 | 0.121 | 0.119 | 0.121 | 0.118 | –
S4T | 0.142 | – | 0.133 | – | – | – | 0.128 | – | 0.124 | 0.141 | 0.149 | 0.155 | 0.143 | 0.0926 | 0.117 | – | – | –
N193T | 0.104 | 0.105 | – | – | 0.104 | 0.127 | – | – | 0.11 | – | – | 0.0964 | 0.0943 | 0.101 | 0.0849 | – | – | 0.0745
F173M | 0.112 | 0.12 | – | – | – | 0.126 | 0.155 | 0.111 | 0.13 | – | – | 0.0935 | – | – | – | 0.121 | – | –
S158A | 0.108 | 0.18 | – | 0.107 | 0.124 | 0.119 | 0.0882 | – | 0.106 | – | 0.0881 | 0.0772 | 0.11 | – | 0.0844 | 0.0527 | – | –
Y12G | 0.115 | 0.118 | 0.138 | 0.0835 | – | 0.108 | 0.102 | 0.113 | 0.112 | 0.118 | 0.119 | 0.103 | 0.0519 | 0.14 | 0.103 | – | – | 0.0758
L191D | 0.0445 | – | 0.0549 | – | 0.0699 | 0.0656 | 0.055 | – | – | – | 0.0581 | 0.062 | 0.0565 | – | 0.0656 | 0.0511 | – | –
I15H | 0.107 | 0.129 | 0.141 | – | – | 0.108 | – | 0.102 | – | – | 0.117 | 0.1 | 0.0985 | 0.116 | 0.0499 | – | 0.0553 | –
S130W | 0.0573 | 0.0811 | 0.0917 | – | 0.0713 | 0.0635 | – | 0.0676 | 0.139 | 0.0799 | – | 0.0997 | 0.0807 | 0.0725 | 0.0804 | – | 0.0731 | –
E231Q | 0.111 | 0.106 | – | – | 0.0948 | – | 0.111 | 0.0654 | – | – | 0.104 | – | 0.1 | – | 0.0901 | 0.0872 | – | –
P9K | 0.128 | – | 0.11 | 0.125 | – | – | 0.0842 | 0.126 | – | – | 0.0915 | 0.0694 | 0.13 | – | 0.0845 | – | 0.0802 | –
Q118M | 0.0668 | – | 0.0844 | – | – | 0.105 | 0.101 | – | – | 0.108 | 0.0997 | 0.149 | 0.109 | – | 0.0847 | 0.0876 | – | –
G28F | 0.0785 | 0.147 | 0.103 | 0.0938 | 0.0796 | – | – | 0.0864 | 0.111 | 0.0972 | 0.0971 | 0.0799 | 0.0973 | – | 0.0699 | 0.0736 | 0.0607 | 0.0768
S123G | 0.0907 | 0.141 | 0.121 | – | – | 0.145 | 0.11 | 0.154 | 0.114 | 0.11 | 0.131 | 0.115 | 0.105 | 0.0871 | 0.105 | 0.0775 | 0.106 | –
T132Q | 0.083 | – | 0.0818 | 0.0667 | – | 0.12 | 0.0581 | 0.0475 | – | 0.0957 | – | 0.0632 | 0.0814 | – | 0.0763 | 0.0802 | 0.0961 | 0.0807
L61E | 0.0985 | – | 0.113 | – | – | – | 0.0897 | 0.108 | 0.142 | 0.137 | 0.111 | 0.0988 | 0.0794 | 0.113 | 0.102 | 0.0872 | 0.0889 | 0.0834
V67C | 0.106 | 0.108 | – | – | 0.101 | – | – | 0.115 | 0.106 | 0.0743 | 0.115 | 0.108 | – | – | 0.0904 | 0.071 | – | 0.114
I86W | 0.0739 | – | 0.0778 | – | – | – | 0.0604 | 0.0751 | – | 0.0762 | 0.0706 | 0.0733 | 0.0679 | – | 0.0647 | 0.0707 | 0.0772 | 0.0384
L99P | 0.114 | 0.129 | 0.139 | 0.0938 | 0.0754 | – | 0.0529 | 0.0827 | 0.0835 | – | 0.124 | 0.0943 | 0.0963 | 0.124 | 0.0837 | – | 0.101 | 0.109
L73T | 0.0693 | 0.0731 | – | 0.0758 | 0.0617 | 0.0762 | 0.0731 | 0.0665 | 0.0864 | – | – | 0.0802 | 0.0578 | – | 0.0563 | – | 0.0805 | –
L73S | 0.063 | – | 0.0944 | – | 0.0368 | – | 0.0561 | – | 0.0608 | 0.0617 | – | 0.0326 | 0.0686 | – | 0.0619 | 0.0554 | – | –
V210S | 0.0812 | 0.131 | – | – | 0.0571 | 0.102 | 0.0608 | 0.0699 | 0.0718 | 0.116 | 0.0763 | 0.08 | 0.0878 | 0.0853 | 0.0797 | – | – | –
I110S | 0.0576 | 0.0577 | 0.0685 | – | 0.0182 | 0.0536 | – | 0.0671 | 0.0405 | – | 0.0685 | 0.0597 | 0.0677 | 0.0618 | 0.0545 | 0.0466 | – | 0.0587
Q151G | 0.149 | 0.16 | 0.112 | 0.107 | 0.071 | – | 0.0892 | – | 0.0659 | 0.132 | 0.0694 | 0.0897 | 0.0967 | – | 0.0872 | 0.107 | – | –
T129F | 0.0744 | – | – | – | 0.0916 | – | 0.0922 | – | 0.107 | – | 0.0992 | 0.0802 | – | – | – | 0.0559 | – | 0.0925
K230P | 0.0953 | 0.131 | 0.121 | – | 0.106 | 0.115 | 0.0994 | 0.109 | – | – | 0.161 | 0.081 | 0.0974 | 0.101 | 0.102 | – | – | 0.0788
G37V | 0.0662 | 0.0866 | 0.129 | – | – | 0.092 | – | 0.0795 | – | 0.0934 | 0.102 | 0.0919 | 0.0638 | 0.111 | 0.0741 | 0.084 | 0.104 | 0.0818
D69T | 0.0934 | 0.0823 | 0.105 | – | 0.076 | – | 0.0677 | – | 0.119 | 0.133 | – | – | 0.0848 | – | 0.104 | 0.0727 | – | 0.0719
